Assay results published in the RNAGym collection of RNA variant scans (doi:10.7554/elife.90254).
Read counts are not given, so values of variants with three or more changes are uncertain.

B1: LINE1-full (parent)
chain: UACGUAGGUGGUUUUCCCCUGAUAGUGCUAAGGGGGCCUGGAAGUUUGGACUGGGCAGAGCUCAACACAGCGUGGCAAAGUGGCUGUGGCUAGACUGCCUCUCUGGAUUCCUCGUCACUCAGCAGGGCAUCUCUGAGAGAAAUGCC

Variants of: B1
Experiment: self-cleavage, relative activity (ratio to wild type); higher = more cleavage; in vitro, sequencing; the parent is a self-cleaving ribozyme

Variant	self-cleavage
U12C U14C A57G U62C U85A	0.74
U12C U100G C110U U143A	2.33
U12C U73C A140G	0.51
U12C U47A U134G	1.29
U12G C71A A78G A121G	0.39
U12C U39C A57G U85G U104A	0
U12C U104C A124U A129G	2.3
U12G A22U A57G A121U	0.48
U12C U15C G82A A140G	1.43
U12C U14C G54U G58A	0.12
U12C U14C A79G	0.32
U12G A79U A94G	0
U12C U46C U102A	2.2
U12C U91C A136U	0
U12C U39G U62C A142G	0.06
U12G C18U A57G U85A	0.19
U12C U52C U62C	0.52
U12C U13A A42G A79U G125U A136G U143C	1.47
U12C U15G G74U U104C	0.67
U12C U15C A59U U102C	0.45
U12G A121G U134G A141G	1.47
U12G A67G G86A U115A A117G	0
U12C U102C C146U	1.31
U12C U73C A136G	0.51

Variant	self-cleavage
U12C U39G A42G A57G A117U A138G	0
U12C U14C U52C A121G	2.7
U12C U13C A77U U134A	1.2
U12C U47A A141G A142G	0
U12C U39C U112A	1.24
U12C U13C A121G U130A	2.16
U12G A57U A64G A142G	0.34
U12G A22G U130C U143A C146U	1.02
U12C U15C C98U	0.77
U12C U13A A22U U52A A136U	1.38
U12C U100C U115C	1.62
U12C U62C A107G C128U	0.06
U12G A79U U81C U108G A136G	0
U12G A69U A79U A136U	0.19
U12C U26A A141G A142G	1.5
U12G A121U U132C A136G	1.61
U12C U14C A43G U119A	0.97
U12C U45C U47A A94G U132C	0
U12G A121U U134A	1.72
U12C U20C U143C	1.13
U12C U81A G135A	2.01
U12C U15C G93A A121G	0.2
U12C U39A U130C	1.84
U12C G105A U134C	2.15

Variant	self-cleavage
U12C U45A A94U A117U	0.39
U12C U81C U85A	0
U12C U91A U102A U115C A140U	0.99
U12C U87C U134A	0
U12C U15A A77U U87A U96A C116U G126C	0.04
U12G C38U U134C	1.05
U12C U46A A59U U100C U108C	1.16
U12G A42G U47C G93A	0.16
U12C U13A U39A U85C	0.06
U12C U26C U119A G125U A136G	1.33
U12C U14C U26A	0.6
U12C U13C A77G A142G	1.35
U12C U52A C110U	2.03
U12C U39G U73A A117U	1.37
U12C U85C C133U	0.12
U12C U62A U109C	0.08
U12C U15C A22G G27A C116U	0.89
U12C U13C U130C G137A	1.19
U12C U52C G72A C103U	1.74
U12C U14C G54A	0.74
U12G A43U A124U	1.16
U12C U13C A50G	1.5
U12C U23C A24G	1.06
U12C U96C A117C	0.2

Variant	self-cleavage
U12C U23C G35A A43G A138G	2.06
U12C U14C A42G A78G	0
U12C U14C A136U	0.56
U12C U14C U81C	0.57
U12C U14C U81A	2.84
U12C U87C U143A	0
U12C U23C U85C	0.8
U12G A78G A138G	0.84
U12C U20C A92G U132C A142G	0
U12C U14C U134C	2.83
U12G A57G A67U U130C	0
U12C U14C A67G A124G	0
U12C U73C C113A A141G	1.99
U12G A43G U132C	0
U12C U14C U73A	1.19
U12C U14C G82A G125A U130C C131U C145U	1.8
U12C U14C U81A U102C U132C	2.56
U12C U14A U15A	0.72
U12G A22G U85A	0.12
U12C U62C U81C G114U A124U	0.11
U12C U26G A57U A138G	0.96
U12C U45C U109A A142G	1.27
U12C U119A C123U	1.57
U12C U26G G58C U62C A79G	0

Variant	self-cleavage
U12C U29A U143C	1.38
U12C U46C U134A	1.63
U12C U29C A57U A78U U134A A140U	0.38
U12C U73C U102C U115A U132C	1.53
U12G A22G A136C	0.88
U12C U73C U115C C123U	2.17
U12G C19A G60U C113A	0.13
U12C U73C U130A	2.3
U12C U13C A43G A57U G74U	0.24
U12G A78G U115C U119A	2.7
U12C U20C A67G A117U G127A	0.82
U12C U20C U46A C56U	0.22
U12C U15A A43G U87C	0.77
U12C U81A G97C	0.97
U12C U26C A141G A142G	1.15
U12G A50G A59G A117U	0.49
U12C U85C U132A	0.3
U12C U13C A94U	0.58
U12C U52C U130A	1.24
U12C U29C U96A	0.18
U12C U26A U47C A129G	1.09
U12C U62A A64U U96C U100C	0.04
U12C U15A U46A G58U C145U	0.22
U12C U15C U39C U45C A69G U87A C98U U100C U134C	0

Variant	self-cleavage
U12C U39A A43U U46C A79U U87C U112C	0
U12C U13C U47A A78G A129G	1.16
U12C U15C G21A A79G C110A	1.04
U12C U112C A124G A140G	0.17
U12C G93A C103A	0.1
U12G A24U U108C	0
U12C U87A U100C A121U C145U	0.17
U12C U13C U100C U102C	0
U12C U14C U45A U130C	0.82
U12G A31G U115C	0.18
U12G A31C G88A U109C	0.25
U12C U15C G27A A64G	0.54
U12G A57U A141G	0.1
U12C U15C U62C U87A U108A	0
U12C U14C A67G A129C	0
U12G A43G U119C G144A	1.18
U12C U62C A94G	0
U12C U14C A31U U108C	1.62
U12C U13C A94G U96G	0
U12C U29C U46C U47G A78G U102A G105A U115A C123U	1.31
U12C U132A A136G A141G	0.32
U12G A22G U29C U62C U115A	0
U12C U20G U45C U81A	1.5
U12G A22G A43G U104A	0.82

Variant	self-cleavage
U12C U100C A136G	2.93
U12C U39A A124G	0.58
U12G C68U A69G	0.09
U12C U15A U87C A107G	0
U12C U85C G126A	1.31
U12G C19U A79G G82A G86A	0.24
U12C U73C A142G	1.38
U12C U29A U73A U104A C123U	1.59
U12G C71A A94G	0.12
U12C U87A U96C A121U	0
U12G C68U A77U	0.12
U12C U26A A77G	1.36
U12C U62A U85C G89A U112C A142G	0.05
U12C U85C C95A A136G	0.14
U12C U26A C37G A77G U109A A136G	1.72
U12C U96C U102A U132C	0.71
U12C U15C C19U A67G A94U C110U C131A	0.11
U12G A42G U47A	2.68
U12G A64G C111U	0.39
U12G A30G G54A U112A	0.74
U12C U20A U130C U132A	0.62
U12G A67G C76U A121G A136U	1.4
U12C U109C C113U	0.62
